Assay results as given in PubChem BioAssay AID1347417 (National Center for Advancing Translational Sciences (NCATS), 2020).
About 5,300 (4.4%) of roughly 120,000 compounds were called active. Inconclusive results, whose numbers are uncertain, are shown with a selection of clear calls. Calls follow the shape of the dose curve; as a rule, active = well fitted inhibition curve with a large enough effect; inconclusive = small, poorly fitted or top-dose-only effect; inactive = no such curve, though single readings can be large or run the other way. A potency beside an inconclusive call is a rough fit, not a confirmed value.

Test: qHTS Primary assay for Inhibitors of Plasmodium falciparum Dd2 growth in vitro; also: nearly all actives have a fitted effect of over 65% in size;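 as to activity, negative = inhibition: plate controls were DMSO vehicle for no effect and reference drug for full effect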
Conditions: P. falciparum Dd2 growth, SYBR Green, 72 h; activity, negative = inhibition: at 28.9 µM (top of the series) unless noted; series mostly up to 28.9 µM
How it was run: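 Infected erythrocytes (Dd2, 0.3% parasitemia, 2.5% hematocrit final) are added to compound in RPMI-1640/Albumax II medium, grown 72 h at 37C in low oxygen, then lysed with saponin/Triton-X containing SYBR Green and read by fluorescence.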
Potency is read from the fitted curve at half-maximal effect; tags tell the direction and shape of the fitted curve.

Row | Compound | Potency | activity, negative = inhibition | outcome
1 | N#Cc1ccc(C(=O)N2Cc3[nH]cnc3C[C@H]2c2nc(-c3ccc4c(c3)OCO4)no2)cc1 | active: 10 µM |  | 
2 | Cc1ccc(NC2=C(c3ccc(C(F)(F)F)cc3)C(=O)c3ccccc32)cc1F | active: 0.178 µM |  | 
3 | CCOc1ccccc1NC(=O)CSc1nc2ccccc2c2nc(CCn3cncc3C)nn12 | inconclusive: 5.62 µM [inhibitor, partial curve, poor fit] |  | 
4 | O=C(C1CCC1)N1CCCC(c2nc(C3CCOCC3)no2)C1 (centres undefined) |  | inactive: 24.2% | 
5 | O=C(NCC(c1cccnc1)N1CCc2ccccc21)c1ccccc1Br (centres undefined) | inconclusive: 17.8 µM [inhibitor, single point] |  | 
6 | CCOC(=O)CNC(=O)Nc1cc(C(=O)NCc2cccc(F)c2)ccc1N1CCCC1 |  |  | inactive
7 | CC1=C[C@@H](CNC(=O)c2ccc(F)cc2)[C@H](C(C)C)C[C@H]1Cc1nnc(-c2ccncc2)o1 | inconclusive: 12.6 µM [inhibitor, partial curve, poor fit] |  | 
8 | c1ccc(-c2nnc([C@H]3CCN(C4CCC4)C3)o2)cc1 | inconclusive: 11.2 µM [inhibitor, partial curve, poor fit] |  | 
9 | O=C(Cc1cccs1)NC1CC(c2cc(N3CCC(O)C3)ncn2)C1 (centres undefined) |  | inactive: -5.21% | 
10 | CCOc1ccc(C(=O)NC2CCN(c3cc(-c4ccccc4)[nH]n3)CC2)cc1OCC | inconclusive: 1.41 µM [inhibitor, partial curve] |  | 
11 | CN(CC(=O)N1CCC(CCOc2ccc(F)cc2)C1)S(=O)(=O)c1ccc2c(c1)oc(=O)n2C (centres undefined) | inconclusive: 8.91 µM [inhibitor, partial curve, poor fit] |  | 
12 | O=C1CCC(C(=O)N2CCc3nc(-c4cccc(F)c4)[nH]c3C2)NC(=O)N1 (centres undefined) |  | inactive: -9.97% | 
13 | Cc1c(-c2ccc(F)cc2)[nH]c2ccc(CNC(=O)c3n[nH]c4c3CCCC4)cc12 | inconclusive: 7.08 µM [inhibitor, partial curve] |  | 
14 | CC(=O)N1CCC(N2C[C@H](O)C[C@H]2c2nc(-c3cccc(C)c3)no2)CC1 |  |  | inactive [at 44.1 µM]
15 | COc1ccccc1Nc1cc(C)nc2nc(-c3ccccc3)nn12 | inconclusive: 8.91 µM [inhibitor, single point] |  | 
16 | CC(C)(C)c1ccc(C(=O)N2CCN(C(=O)c3nnn4c3COC(c3ccccc3)C4)CC2)cc1 (centres undefined) | inconclusive: 2 µM [inhibitor, partial curve] |  | 
17 | COc1ccc(OCCn2c(C3CC(=O)N(c4ccc(F)cc4)C3)nc3ccccc32)cc1 (centres undefined) | inconclusive: 10 µM [inhibitor, single point] |  | 
18 | COc1ccc(Nc2cc(C(=O)NCCc3ccccc3)c3ccccc3n2)cc1OC |  | inactive: 13.6% | 
19 | O=C(c1ccccc1Cl)N1CCN(c2nc3ncccc3o2)CC1 |  | inactive: 8.49% | 
20 | CSCC(=O)N1C[C@@H](NC(=O)NC2CCCCC2)C[C@H]1C(=O)N(C)CC(N)=O |  | inactive: 21.2% [at 44.1 µM] | 
21 | CC[C@@H](Nc1ncnc2c1CN(C1CCCNCC1)C(=O)CN2C)c1ccccc1 (some centres undefined) |  | inactive: -0.415% | 
22 | COc1cccc(N2CCN(C(=O)C3CCCN(S(=O)(=O)c4ccc(Br)s4)C3)CC2)c1 (centres undefined) | inconclusive: 10 µM [inhibitor, single point] |  | 

Row | Compound | Potency | activity, negative = inhibition | outcome
23 | COCCNC(=O)C1CC(c2ccccc2)CN(C(=O)c2ccccc2)C1 (centres undefined) |  | inactive: -7.58% | 
24 | Cc1ccccc1Cn1cc(S(=O)(=O)c2ccc(Cl)cc2)c(=O)c2cc3c(cc21)OCO3 | inconclusive: 10 µM [inhibitor, single point] |  | 
25 | Cc1ccc(CCNC(=O)c2nnn3cc(C)[nH]c(=O)c23)cc1 |  |  | inactive
26 | COc1cccc(CNC(=O)[C@@H]2C[C@@H](O)CN2C2CCN(C(=O)C3CCCCC3)CC2)c1 | inconclusive: 8.91 µM [inhibitor, partial curve] |  | 
27 | CSc1ccc(CNCc2c(C(=O)O)c(C)n(Cc3ccc(F)cc3Cl)c2C)cc1 | inconclusive: 20 µM [inhibitor, partial curve, poor fit] |  | 
28 | COC[C@@H]1CN(C(=O)c2cc3ccccc3[nH]2)C[C@H]1c1ccncc1 | inconclusive: 0.631 µM [inhibitor, full curve, poor fit] |  | 
29 | COC(=O)c1c(NC(=O)c2ccc(S(=O)(=O)N3CCCC(C)C3)cc2)sc2c1CCN(C(C)C)C2 (centres undefined) | active: 8.91 µM |  | 
30 | CC(C)c1ccc(NC(=O)CSc2ncc3c(n2)-c2ccccc2N(C)S3(=O)=O)cc1 | inconclusive: 8.91 µM [inhibitor, single point] |  | 
31 | O=C1C[C@@H]2CCN(C(=O)COc3ccccc3)C[C@@H]2CCN1CCN1CCOCC1 |  |  | inactive [at 44.1 µM]
32 | CC(C)(C)CC(=O)Nc1nc2c(s1)C[C@@H]1[C@](C)(CO)[C@H](O)CC[C@@]1(C)[C@@H]2CC(=O)NCc1ccccc1 |  |  | inactive
33 | CC(=O)N[C@@H]1C=C[C@@H](c2c(C)nn(-c3ccc(C)c(Cl)c3)c2C)C1 |  |  | inactive [at 44.1 µM]
34 | CC(C)(CC(=O)O)CC(=O)N1CC[C@H]2NC(=O)N(c3ccc(F)cc3)C(=O)[C@H]21 |  | inactive: -5.24% [at 44.1 µM] | 
35 | CC(C)C[C@H](NC(=O)Cn1nc2c(cc1=O)CCCCC2)C(=O)O |  | inactive: -8.33% | 
36 | CCn1c(C(=O)N2CCC(C(=O)N3CCN(c4cccc(C)c4C)CC3)CC2)cc2sccc21 | inconclusive: 10 µM [inhibitor, partial curve, poor fit] |  | 
37 | COc1ccc(CN2CC(Oc3ccccc3C(=O)NC3CC3)C2)c(OC)c1 | inconclusive: 20 µM [inhibitor, partial curve, poor fit] |  | 
38 | CCN1c2ccccc2-n2cccc2C12CCN(C(=O)Nc1ccccc1C(F)(F)F)CC2 | active: 2.82 µM |  | 
39 | CCS(=O)(=O)N1CCCC(n2c(C)cnc2C2CC2)C1 (centres undefined) | inconclusive: 12.6 µM [inhibitor, partial curve] |  | 
40 | COCCn1cc(C(=O)NC2CCCc3c2[nH]c2ccccc32)c2ccccc2c1=O (centres undefined) | inconclusive: 11.2 µM [inhibitor, single point] |  | 
41 | COc1ccc(-c2cc([C@H]3CN4CC[C@H]3C[C@@H]4CNC(=O)C3CCCCC3)n(C)n2)cc1 | inconclusive: 10 µM [inhibitor, single point] |  | 
42 | COc1ccc(Cl)cc1NC(=O)N1CCC(CN2CCc3ccccc3C2)CC1 | inconclusive: 12.6 µM [inhibitor, single point] |  | 
43 | COCCNC(=O)CN1CCCc2nc(C3CC3)ncc2C1=O |  | inactive: 18.6% | 
44 | O=C(c1cn(C/C=C/c2ccccc2)nn1)N1CCCN(C2CCCCC2)CC1 | inconclusive: 11.2 µM [inhibitor, single point] |  | 

Row | Compound | Potency | activity, negative = inhibition | outcome
45 | CN(CCNC(=O)CCc1cc2ccccc2[nH]c1=O)C1CCCCC1 | inconclusive: 10 µM [inhibitor, single point] |  | 
46 | Cc1ccc2[nH]nc(C(=O)N3CCCC(N(C)CCc4ccccc4)C3)c2c1 (centres undefined) | inconclusive: 11.2 µM [inhibitor, partial curve, poor fit] |  | 
47 | O=C(C1CCCN(S(=O)(=O)c2cccs2)C1)N1CCN(c2cccc(Cl)c2)CC1 (centres undefined) | inconclusive: 12.6 µM [inhibitor, single point] |  | 
48 | Cc1cccc(NC(=O)N2CCC(CCNC(=O)c3cccs3)CC2)c1 | inconclusive: 11.2 µM [inhibitor, single point] |  | 
49 | Cc1ccc(C)c(N2CCN(c3ncnc4c3nc3n4CCCCC3)CC2)c1 | inconclusive: 17.8 µM [inhibitor, single point] |  | 
50 | CC(=O)NC1(C)CCN(Cc2ccc(-c3ccc(Oc4ccccc4)cc3)cc2)C1 (centres undefined) | inconclusive: 3.98 µM [inhibitor, full curve, poor fit] |  | 
51 | O=c1c2cc3c(cc2nc2sc(Nc4ccc(F)cc4F)nn12)OCO3 | inconclusive: 0.0282 µM [inhibitor, full curve, poor fit] |  | 
52 | CCC(=O)N1CCCC(c2nc(C(C)C)no2)CCNC(=O)CC1 (centres undefined) |  | inactive: -1.61% | 
53 | COC(=O)[C@@H]1Cc2c([nH]c3ccccc23)[C@H]2C[C@@H](NCCNC(C)=O)C[C@@H](c3ccc(C)cc3)N21 |  |  | inactive
54 | CC(C)(C)c1ccc(Cn2c(Cc3ccccc3)nc3ccccc32)cc1 | inconclusive: 17.8 µM [inhibitor, single point] |  | 
55 | NC(=O)C1(N2CCCCC2)CCN(c2nccc(-c3ccccn3)n2)CC1 | inconclusive: 3.98 µM [inhibitor, single point] |  | 
56 | CCOc1ccc(-c2nonc2NC(=O)c2oc3ccc(F)cc3c2C)cc1 | inconclusive: 7.08 µM [inhibitor, partial curve] |  | 
57 | COc1ccccc1NC(c1ccc(Cl)cc1)c1nnc(-c2cccc(F)c2)o1 (centres undefined) | inconclusive: 17.8 µM [inhibitor, single point] |  | 
58 | CCC1(N2CCN(S(=O)(=O)c3ccccc3Cl)CC2)CCN(S(C)(=O)=O)C1 (centres undefined) |  |  | inactive
59 | CC(=O)c1ccc(NC(=O)CCc2c(C)nc3c(c(C)nn3-c3ccc(C)cc3)c2C)cc1 | inconclusive: 3.98 µM [inhibitor, partial curve, poor fit] |  | 
60 | Cc1cn2nc(C(=O)N3CCC(NC(=O)c4nccc5ccccc45)CC3)cc2c(=O)[nH]1 | inconclusive: 1 µM [inhibitor, full curve, poor fit] |  | 
61 | COc1cccc(C(=O)NC(C(=O)N2CCCCC2)C2CCN(C(=O)c3cccc(F)c3)CC2)c1 (centres undefined) | active: 8.91 µM |  | 
62 | CCCn1cnc2c1CN(S(=O)(=O)c1cccc3cccnc13)[C@H](C(=O)OC)C2 | inconclusive: 7.94 µM [inhibitor, partial curve, poor fit] |  | 
63 | COc1ccc(NC(=O)CN2C(=O)NC3(CCC(C(C)(C)C)CC3)C2=O)cc1OC (centres undefined) | inconclusive: 17.8 µM [inhibitor, partial curve, poor fit] |  | 
64 | Cc1ccc(-c2cc3c(=O)n(CCNC(=O)c4ccc(Cl)cc4)ccn3n2)c(C)c1 | inconclusive: 1.58 µM [inhibitor, single point] |  | 
